Values joined by “and” are separate entries in the source; they are usually repeats but may differ in a detail not shown here. Identical values can stand only once. In all, about 350,000 compounds went through this assay and about 9,900 (2.8%) were called active. Inconclusive means that the source gave no clear call. Such entries were picked first, then a sample of the others. Calls follow the shape of the dose curve; as a rule, active = well fitted activation curve with a large enough effect; inconclusive = small, poorly fitted or top-dose-only effect; inactive = no such curve, though single readings can be large or run the other way. Where the call is inconclusive, the potency comes from a doubtful curve fit.
Assay: A quantitative high throughput screen for small molecules that induce DNA re-replication in MCF 10a normal breast cells. Also: nearly all actives have a fitted effect of over 50% in size. As to activity, positive = re-replication: % of control where 0% means no effect.
Conditions: MCF 10A DNA re-replication, Hoechst nuclear intensity, 48 h; activity, positive = re-replication: at 46.1 µM (top of the series)
Potency is read from the fitted curve at half-maximal effect; tags tell the direction and shape of the fitted curve.

Compound | Potency | activity, positive = re-replication
N[C@@H](Cc1ccc(N(CCCl)CCCl)cc1)C(=O)O | inconclusive: 29.9 µM [activator, partial curve, poor fit] and inconclusive: 1.3 µM [activator, partial curve, poor fit] | –
Cc1cccc(CCNCc2cc3ccc(C)cc3[nH]c2=O)c1 | inconclusive: 29.1 µM [activator, single point] | –
NC(=O)c1ccc(N)nc1 | inactive | –
CN1C(=O)C(=Cc2ccccc2OS(=O)(=O)c2ccccc2)C(=O)N(C)C1=O | inconclusive: 20.6 µM [activator, single point] | –
CCCCc1nc2ccccc2c(=O)n1-c1ccc(O)cc1 | inconclusive: 6.31 µM [activator, full curve] | –
CN(C)c1ccc([N+](=O)[O-])c([N+](=O)[O-])c1 | inactive | –
O=C(O)c1ccccc1SCC(=O)N1c2ccccc2Sc2ccccc21 | inconclusive: 29.1 µM [activator, partial curve, poor fit] | –
CCOc1cc(C=C2C(=O)NC(=O)NC2=O)ccc1OS(=O)(=O)c1ccccc1 | inconclusive: 29.1 µM [activator, single point] | –
O=C(c1cc2cc(Cl)ccc2[nH]1)N1CCC2(CC1)OCCO2 | active: 23.1 µM | –
Cc1cccc(N2CCc3c2nc2ccccc2c3N)c1 | active: 14.6 µM | –
O=c1[nH]c(=O)n(CCC2=CCCCC2)c(O)c1C=NCCCn1ccnc1 | inconclusive: 25.9 µM [activator, single point] | –
CN1CCN(c2cccc3c2C(=O)c2ccccc2C3=O)CC1 | inactive | –
COc1ccc(C(CNC(=O)Cc2ccc(Cl)c(Cl)c2)N2CCCCC2)cc1 (centres undefined) | inconclusive: 20.6 µM [activator, partial curve, poor fit] | –
C[C@]12CC[C@@H](O)C[C@@H]1CC[C@@H]1[C@@H]2CC[C@]2(C)[C@@H](O)CC[C@@H]12 | inconclusive: 29.1 µM [activator, single point] | –
COc1ccc(CN2Cc3cnnn3-c3ccccc3C2C)cc1 (centres undefined) | inconclusive: 18.4 µM [activator, single point] | –
COc1cc2c(cc1OC)-c1c(OC)c(OC)c(OC)c3ccnc(c13)C2=O | inconclusive: 3.26 µM [activator, full curve, poor fit] | –
COc1ccc(C=C(C#N)c2ccc(OC)cc2)cc1 | inconclusive: 25.9 µM [activator, single point] | –
CN1C(=O)C(=Cc2sc(=O)n(-c3ccccc3)c2N(C)C)C(=O)N(C)C1=O | active: 18.4 µM | –
C#CCN1CC(=O)N(COC(=O)[C@@H]2[C@@H](C=C(C)C)C2(C)C)C1=O | inactive | –
O=C1NC(=O)C(CCc2ccncc2)(Cc2cccc(Cl)c2Cl)C(=O)N1c1ccc(Br)cc1 (centres undefined) | active: 4.61 µM | –
CC(Oc1ccc(Cl)cc1Cl)C(=O)Nc1ccc(S(=O)(=O)Nc2cnc3ccccc3n2)cc1 (centres undefined) | inconclusive: 8.2 µM [activator, partial curve] | –
O=c1[nH]c(CN2CC=C(c3ccccc3)CC2)nc2cc(C(F)(F)F)ccc12 | active: 14.6 µM | –

Compound | Potency | activity, positive = re-replication
CCN(CC)CCO[C@H]1CC[C@@]2(C)C(=CC[C@@H]3[C@H]2CC[C@]2(C)C(=O)CC[C@H]32)C1 | inactive | –
CC(=O)O[C@H]1C(=O)[C@@]2(C)C([C@H](OC(=O)c3ccccc3)[C@]3(O)C[C@H](OC(=O)[C@H](O)[C@@H](NC(=O)Cc4ccccc4)c4ccccc4)C(C)=C1C3(C)C)[C@]1(OC(C)=O)CO[C@@H]1C[C@@H]2O (some centres undefined) | – | inconclusive: 81.7% [activator]
CCc1ccc(CNCCc2ccc(F)cc2)cc1 | inconclusive: 29.1 µM [activator, single point] | –
C[C@]12CCCCC1=CC(=O)C1C2CC[C@@]2(C)C1C[C@@H](F)[C@@H]2O (some centres undefined) | inactive | –
CCOc1ccc(OCC)c(NC(=O)CN2CCN(c3ccc(C)cc3C)CC2)c1 | inconclusive: 29.1 µM [activator, single point] | –
CCCCOc1ccc(Cn2c(=O)oc3ccccc32)cc1 | inconclusive: 25.9 µM [activator, single point] | –
CN(C)CC1Oc2ccccc2OC1(O)c1ccccc1 (centres undefined) | active: 2.59 µM | –
COc1ccc(CN2C(=O)NC(=O)/C(=C\c3ccco3)C2=O)cc1 | inactive | –
O=C1/C(=C\c2cccnc2)N2CCC1CC2 | inactive | –
Nc1ccc(Cl)cc1C(=O)c1ccccc1Cl | inconclusive: 20.6 µM [activator, single point] | –
CCC(CC)N1CCN(Cc2nc3ccccc3c(=O)n2-c2ccc(F)cc2)CC1 | active: 0.58 µM | –
Cc1cccc(C)c1NC(=O)c1cccn(Cc2ccc3c(c2)OC(F)(F)O3)c1=O | inconclusive: 23.1 µM [activator, single point] | –
CN1CCN(Cc2ccccc2Sc2ccccc2)CC1 | inconclusive: 25.9 µM [activator, single point] | –
CCOC(=O)c1nc2ccccc2c(=O)n1-c1ccc(C)cc1C | inconclusive: 13 µM [activator, partial curve, poor fit] | –
CN(CC(=O)Nc1ccccc1-c1ccccc1)C1CCCCC1 | inconclusive: 18.4 µM [activator, single point] | –
CCCCN1C(=O)/C(=C\c2ccco2)C(=O)N(CCc2ccccc2)C1=O | inconclusive: 29.1 µM [activator, single point] | –
Ic1ccccc1CN[C@@H]1C2CCN(CC2)[C@@H]1C(c1ccccc1)c1ccccc1 | inconclusive: 29.1 µM [activator, single point] | –
O=C1/C(=C\c2ccc([N+](=O)[O-])cc2)N2CCC1CC2 | inconclusive: 29.1 µM [activator, single point] | –
CC1CCCN1CCC(C(N)=O)(c1ccccc1)c1ccccc1 (centres undefined) | inactive | –
CCCCCCCSc1cc(OC)c(CCNC)cc1OC | inconclusive: 29.1 µM [activator, single point] | –
CCCCN1C(=O)C(C2c3ccccc3C(=O)N2Cc2ccccc2)C(=O)NC1=S (centres undefined) | inactive | –
C=CCn1c(O)c(C(CC)=NCC2CCCO2)c(=O)[nH]c1=O (centres undefined) | inactive | –
